Source: PubChem BioAssay (NCI)
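Tested at 5 concentrations; 48 h exposure; 96-well plates; endpoints linearly interpolated, else capped at highest concentration. TGI: total growth inhibition.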 A number of entries come with more than one value. Only these are listed. An entry can have further records. A record mostly stands for its own series of concentrations, not given here; a value can be the end of its range.

Test system: MDA-MB-468 breast
Assay: NCI tumour cell line growth inhibition, 48 h

`CC(=O)c1cc(C(=O)c2ccc3c(c2)Sc2ccccc2N3)n2ccccc12` was tested, and the TGI was 19.1 nM and 4.5 µM.
